# According to PubChem BioAssay AID485294 (National Center for Advancing Translational Sciences (NCATS), 2010):
# The campaign covered roughly 370,000 compounds. About 150 (0.041%) were called active. Inconclusive means that the source gave no clear call. Such entries were picked first, then a sample of the others. The call rests on the fitted dose curve; in most records, active means well fitted inhibition curve with a large enough effect; inconclusive means small, poorly fitted or top-dose-only effect; inactive means flat fitted curve, though single readings scatter. Potencies of inconclusive entries are left out as doubtful fits.
# Molecular target: Beta-lactamase (Escherichia coli (strain K12)) (UniProt P00811)
# UniProt P00811, sequence (P00811 whole entry, looked up): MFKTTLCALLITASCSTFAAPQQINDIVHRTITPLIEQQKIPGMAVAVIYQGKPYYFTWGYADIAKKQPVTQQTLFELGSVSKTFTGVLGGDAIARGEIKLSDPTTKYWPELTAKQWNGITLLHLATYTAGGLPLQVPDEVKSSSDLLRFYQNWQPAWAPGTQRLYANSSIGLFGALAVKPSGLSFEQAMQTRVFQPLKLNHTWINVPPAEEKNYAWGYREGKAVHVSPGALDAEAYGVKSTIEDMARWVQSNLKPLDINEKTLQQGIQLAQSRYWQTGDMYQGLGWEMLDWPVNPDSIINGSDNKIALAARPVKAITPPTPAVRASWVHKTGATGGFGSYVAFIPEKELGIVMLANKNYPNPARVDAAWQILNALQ
# Assay: qHTS Inhibitors of AmpC Beta-Lactamase (assay with detergent); further: nearly all actives have a fitted effect of over 25% in size
# Conditions: AmpC hydrolysis of nitrocefin, absorbance 480 nm, 0.01% Triton; series mostly up to 114 µM
# Procedure, shortened: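 20 mM phosphate pH 7.0 + 0.01% (detergent screen) or 0.0001% Triton X-100; 5.3 nM AmpC reagent; cpd preinc 15 min RT; nitrocefin (800 uM stock) to start; A480 q20 s × 4 min; Activity was normalised to no-enzyme and no-compound control wells.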
# Potency means the concentration at half of the fitted maximal effect; tags describe the fitted curve by direction and shape.
row,SMILES,Potency
1,c1ccc(OCc2cc(-c3ccccc3)no2)cc1,"inconclusive [inhibitor, full curve]"
2,CN1CCN(S(=O)(=O)c2ccc(NC(=S)NC(=O)C3CCC3)cc2)CC1,"inconclusive [inhibitor, partial curve, poor fit]"
3,COc1cc(/C=C2/C(=O)NN(c3ccc(Cl)cc3)C2=O)cc(OC)c1O,"inconclusive [inhibitor, full curve, poor fit]"
4,CCOC(=O)c1ccc(NC(=O)CN(C)S(=O)(=O)c2ccc(Br)s2)cc1,"inconclusive [inhibitor, full curve, poor fit]"
5,NS(=O)(=O)c1ccc(NC(=O)CCCCCN2C(=O)c3ccccc3C2=O)cc1,"inconclusive [inhibitor, partial curve]"
6,Nc1nonc1-n1nnc(C(=O)N/N=C/c2ccc(Cl)cc2Cl)c1CN1CCCC1,"inconclusive [inhibitor, full curve]"
7,CN(CC(=O)Nc1ccccc1C(F)(F)F)C(=O)Cc1ccc(S(=O)(=O)N2CCOCC2)s1,inactive
8,COc1cc(CN2CCC(Cc3ccccc3)CC2)c([N+](=O)[O-])cc1OC,"inconclusive [inhibitor, full curve, poor fit]"
9,CCOC(=O)CCNC(=O)N1CCN(S(=O)(=O)c2ccc3c(ccn3C)c2)CC1,inactive
10,O=C(COC(=O)Cc1cccs1)Nc1ccccc1,"inconclusive [inhibitor, partial curve, poor fit]"
11,CCC(Sc1nc(N)c(NC(=O)c2ccc(Br)o2)c(=O)[nH]1)C(=O)O (centres undefined),"inconclusive [inhibitor, full curve]"
12,COc1ccc(CC(C)Nc2cccc(SC)c2)cc1 (centres undefined),inactive
13,O=C(NCc1ccco1)c1sc2ccccc2c1Cl,inactive
14,CCN1CCN(c2nc(-c3cccnc3)nc3ccccc23)CC1,inactive
15,O=C(Nc1ccc(C(=O)N2CCCC2)cc1)c1ccccc1F,"inconclusive [inhibitor, full curve, poor fit]"
16,COc1ccc(/C=C/c2onc(C)c2S(=O)(=O)N2CCC(C(=O)N3CCCCCC3)CC2)cc1,"inconclusive [inhibitor, full curve, poor fit]"
17,CO/C=C\C=C/c1nnn(-c2ccc(Cl)cc2)n1,inactive
18,O=C(NCc1ccncc1)c1cn(-c2ccccc2)nc1-c1cccnc1,"inconclusive [inhibitor, full curve, poor fit]"
19,N#C/C(=C/c1ccc(N2CCOCC2)o1)C(=O)NC1CCCCC1,inactive
20,O=C(O)c1cccc(NC(=S)N/N=C/c2ccccc2OCc2ccc(Br)cc2)c1,inactive
21,CCOc1ccc(NC(=O)[C@@H]2CCCN2C(=O)c2cccs2)cc1S(=O)(=O)N1CCOCC1,inactive
22,CC(C)NC(=O)NC(=O)CSc1nnc(-c2ccccc2F)n1N,"inconclusive [inhibitor, partial curve, poor fit]"
23,Cc1nnc(Oc2ccc([N+](=O)[O-])cc2)c2ccccc12,inactive

row,SMILES,Potency
1,COc1ccccc1CC1CC(=O)N(c2cccc(Cl)c2C)C1=O (centres undefined),"inconclusive [inhibitor, full curve, poor fit]"
2,CC(C)c1ccc(NC(=O)Nc2cc3sccc3n2C)cc1,"inconclusive [inhibitor, full curve, poor fit]"
3,CN1C(=O)/C(=C/c2ccc(Cl)s2)C(=O)NC1=S,inactive
4,CSCCC(NC(=O)c1ccccc1Br)C(=O)NCC(C)(C)N1CCOCC1 (centres undefined),"inconclusive [inhibitor, full curve, poor fit]"
5,CCOCCCNc1nc2c(-c3ccccc3)nnn2c2ccccc12,"inconclusive [inhibitor, partial curve, poor fit]"
6,CC(Oc1cc2oc(=O)c3c(c2cc1Cl)CCCC3)C(=O)NCC1CCC(C(=O)O)CC1 (centres undefined),"inconclusive [inhibitor, full curve, poor fit]"
7,CCOC(=O)N1CCN(CCC(=O)Nc2cccc(F)c2)CC1,inactive
8,Cc1nc(SC2C=CS(=O)(=O)C2)n[nH]1 (centres undefined),"inconclusive [inhibitor, partial curve, poor fit]"
9,CCC(=Nc1ccc2c(c1)CCC2)c1c(O)n(C2CCCCC2)c(=O)[nH]c1=O,inactive
10,CCCC(c1nnnn1C1CCCC1)N1CCN(c2ccccc2F)CC1 (centres undefined),"inconclusive [inhibitor, partial curve]"
11,CC(=O)c1cccc(NC(=O)C2C(c3ccccc3)C2(Cl)Cl)c1 (centres undefined),"inconclusive [inhibitor, full curve, poor fit]"
12,O=C(NCCC1=CCCCC1)c1cc(COc2ccc(F)cc2Cl)on1,"inconclusive [inhibitor, full curve, poor fit]"
13,CCOC(=O)C1C(=O)NC(N2CCN(Cc3ccccc3)CC2)=NC1c1ccco1 (centres undefined),"inconclusive [inhibitor, full curve]"
14,CCOC(=O)c1c(C)[nH]c(C)c1S(=O)(=O)N1CCC(C(=O)NCc2ccc(OC)cc2)CC1,inactive
15,Cn1nc(-c2ccccc2F)c2cc(C(=O)N3CCN(c4ccccc4F)CC3)sc21,inactive
16,OCCCc1nc2n(n1)C(c1ccccc1)C=C(c1ccc(F)cc1)N2 (centres undefined),inactive
17,Cc1nn(-c2nnc(NC3CCCCC3)nn2)c(C)c1Br,active: 100 µM
18,COc1cc(/C=C/C(=O)OCC(=O)NC2CCS(=O)(=O)C2)ccc1O (centres undefined),"inconclusive [inhibitor, full curve, poor fit]"
19,Cc1cc(C)nc(NC(=O)c2c(-c3ccccc3Cl)noc2C)c1,"inconclusive [inhibitor, full curve, poor fit]"
20,O=C(Cn1c(O)c(/C=C2\C=Nc3ccccc32)sc1=O)N1CCOCC1,inactive
21,CCCCn1c(N)c(N(CC(C)C)C(=O)CSc2nnc(-c3ccc(Cl)cc3)o2)c(=O)[nH]c1=O,"inconclusive [inhibitor, single point]"
22,NC(=O)COc1ccc(NC(=O)CC23CC4CC(CC(C4)C2)C3)cc1,"inconclusive [inhibitor, partial curve, poor fit]"
23,Cc1ccc(S(=O)(=O)N2CCCc3cc(NC(=O)c4cccc(Cl)c4)ccc32)cc1,inactive

row,SMILES,Potency
1,CCOc1cc(CNc2ccc(O)cc2)cc(Cl)c1OCc1ccccc1,"inconclusive [inhibitor, partial curve, poor fit]"
2,CCCCOc1ccc(C(=O)Nc2ccc3c(c2)N(C(C)=O)CCC3)cc1,"inconclusive [inhibitor, single point]"
3,Cc1ccccc1CS(=O)(=O)Cc1ccc(C(=O)NCCCN2CC(C)CC(C)C2)o1 (centres undefined),"inconclusive [inhibitor, partial curve, poor fit]"
4,CCCC(c1nnnn1CS(=O)(=O)c1ccc(C)cc1)N1CCN(c2ccccc2)CC1 (centres undefined),inactive
5,Cc1ccc(C2=NN(C(=O)CCCC(=O)O)C(c3ccc4c(c3)OCO4)C2)cc1 (centres undefined),"inconclusive [inhibitor, partial curve, poor fit]"
6,CCOC(=O)C1CCN(CC(=O)NC(=O)NC2CCCCC2)CC1,"inconclusive [inhibitor, single point]"
7,O=C(NNC(=O)c1ccc2c(=O)n3c(nc2c1)CCC3)c1cccc(Cl)c1,"inconclusive [inhibitor, full curve]"
8,O=C(c1nnc(Cc2ccc(Cl)cc2)o1)N1CCc2ccccc2C1,"inconclusive [inhibitor, full curve, poor fit]"
9,CCOC(=O)C[n+]1c(C)ccc2c1CCC2,"inconclusive [inhibitor, full curve, poor fit]"
10,CC1(c2ccc(OC(F)F)cc2)NC(=O)N(CC(=O)Nc2cccnc2Cl)C1=O (centres undefined),"inconclusive [inhibitor, full curve, poor fit]"
11,COc1cccc(CCNC(=O)CC2C(=O)NCCN2Cc2ccc(Cl)c(F)c2)c1 (centres undefined),inactive
12,CCN(CC(=O)NCc1cccs1)S(=O)(=O)c1ccc([N+](=O)[O-])cc1,"inconclusive [inhibitor, partial curve, poor fit]"
13,C=CCOc1c(Cl)cc(CNc2ccc3[nH]c(=O)[nH]c3c2)cc1OC,"inconclusive [inhibitor, partial curve, poor fit]"
14,C/C(=N\NC(=O)c1csc(C)c1C)c1ccc(C)s1,inactive
15,COc1ccccc1NC(=O)N1CCCC1,inactive
16,CCOC(=O)c1sc(NC(=O)c2ccc(S(=O)(=O)N(C)C)cc2)cc1C,inactive
17,Cc1nn(-c2ccc3nnc(Br)n3n2)c(C)c1Br,"inconclusive [inhibitor, partial curve]"
18,CCOC(=O)c1[nH]c(C)c(C(=O)NC)c1C,"inconclusive [inhibitor, partial curve, poor fit]"
19,Cc1ccc(NC(=O)Cc2n[nH]c(=O)c3ccccc23)cc1S(=O)(=O)N1CCCCCC1,inactive
20,COc1cc(/C=N/NC(=O)c2ccncc2)ccc1OC(=O)c1cc(OC)c(OC)c(OC)c1,inactive
21,O=C(COc1ccccc1)Nc1ccccc1Cl,"inconclusive [inhibitor, single point]"
22,CCOc1cccc(N2C(=O)CC(n3cnc4ccccc43)C2=O)c1 (centres undefined),"inconclusive [inhibitor, full curve, poor fit]"
23,c1ccc(COc2ccc(OCCOCCn3cncn3)cc2)cc1,"inconclusive [inhibitor, full curve, poor fit]"
